Measured values reported in the supplement of paper PMC11417369.
Some of the results follow.

Test system: PfAP2-HC AP2 domain (GST-tagged)
Assay: gcPBM binding intensity (ln(normalized median fluorescence intensity)); higher = stronger DNA binding
Outline: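 In this array assay, P. falciparum DNA-binding domains with a GST tag, expressed in E. coli, were applied for 1 h to primer-extended double-stranded 36-bp intergenic genomic probes and negative controls on an Agilent 4 × 180k array. Bound protein was visualised with Alexa488 anti-GST antibody at 488 nm. Binding intensity is the highest Masliner-normalised natural-log median intensity across replicate spots of either probe orientation.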

Sequence	gcPBM binding intensity (ln)
AAATAAAAACATAACAGTACAGTTAACATTTTTATA [XGTACX_site3479]	9.64
AGGTACTTTTTTAAAACACACATATAATATATACAC [CACACA_site1065]	9.75
GATGGAAGGTGAAAGCGTACTTATTATAGTAATATA [XGTACX_site303]	9.61
TGTAATAATCTTACATGTACATACATATATTATATA [XGTACX_site4012]	9.72
TTTTTTTTTTTTTCAAGTACATAACTTACCCCTTTT [XGTACX_site6207]	9.22
TTATATGCATAAAAACGTACAAAAATGTATTCATGT [XGTACX_site2215]	9.73
AGGATATGCAGACACACACACATATATATATATATA [CACACA_site2201]	10.5
TTTTTTAATAATAGGAAAATGAATATTATATCGAAT [TGCATGCA_negctrl_site543]	9.38
GTTATAGAAGCATTCACACACACACCCACATACACA [CACACA_site1465]	11.2
AAACGATTACTGTGTACACACATAGTTATAAACATA [CACACA_site5195]	10.1
GAATGTTAACGTTGCACACAAAAAAAAAGTATACAT [CACACA_site2415]	9.94
TTACATAATATATGTACACACGCAAATACTTAGAAT [CACACA_site320]	9.83
CATTTGATAAGATACACACACAAGGAAAAAAATAAA [CACACA_site350]	10.7
TTATAATATCTATATATCTTTTACATTTATAAGTTT [CACACA_negctrl_site1473]	9.62
TATAATAATATTAACACACGTACAAAAGCAAACAAC [CACACA_site3494]	10.2
ATATATATATTCCACACACACACAAAAAAAAAAAAA [CACACA_site3648]	10.6
TTTTTTTTTTTTTTTGCACACAGGGTGTAGGACAAG [CACACA_site2842]	9.65
TATGGTGTAATTTAGTGTATTATATTATTTTGGTTG [GTGCAC_negctrl_site445]	10
GTCTATTCAAAAAAGTGTACGGACATATAAACATAC [XGTACX_site6516]	9.92

Sequence	gcPBM binding intensity (ln)
TTAGCTATGATATATACACACCAACGAACGAAGAAA [CACACA_site6657]	9.79
TGCAGTCTGGAGAAAAGTACATAGTATCTGGTATCT [XGTACX_site2545]	9.53
AGATATAGGAAAATAATATATATATATTTTTTTTTT [CACACA_negctrl_site461]	9.57
ATATATATATATATATGTACTTATAAGGTATATTTA [XGTACX_site3327]	9.7
ATTTATTTATTTATTTGTACATATAAATATATCAAA [XGTACX_site7383]	9.32
TATATTTATTTATACACATGCATATTTTAAGGGCTC [TGCATGCA_site885]	9.55
CATATAATTATATATCGTACATATTAATATAATTAC [XGTACX_site401]	9.58
AAAGATGTTATATATATGTATATATATATGTAATAT [TGCATGCA_negctrl_site386]	9.67
AGTATACAGATATATACACACATATATTTATTTATA [CACACA_site6279]	9.89
TACAGATAATATATTGCACACGTCAGAATAATATAG [CACACA_site5036]	9.94
TGGTTAATATGTGAAAGTACATATTATATTAAAATG [XGTACX_site2636]	9.49
TATAACTTTTTTATTACACACCTATGCAATATTATA [CACACA_site6570]	9.78
ATAAAATAAGATCTTTTTTTTTTTTTTTTCTTTTCT [XGTACX_negctrl_site73]	9.33
AACAAATAAATAAATAAAAAGCAAATATGTCTATAT [GTGCAC_negctrl_site414]	9.88
AAAAAGAAAAAACTTACACACATATATACAGACATG [CACACA_site550]	10
TTATAATCCATAATTGCACACAATATATTCATATTT [CACACA_site3916]	9.96
AATATACAATAAAGGTGTACACATATATGATGCAAG [XGTACX_site7607]	10.1
AAAAAAAAATAAATAAATATATATAATATTTATGTT [GTGCAC_negctrl_site520]	9.57
ATATATATTTTTTAAACACACACATAAATATTTGTG [CACACA_site8936]	9.87

Sequence	gcPBM binding intensity (ln)
AATACACAAATATATTGTACATATATATATATATAT [XGTACX_site2440]	9.79
ACTTATTATTAATATTGTACTCTTGAAAATTGTGGA [XGTACX_site6315]	9.38
CATATATAAATATAAATATATATATATATATATATG [XGTACX_negctrl_site493]	9.51
TTCTTCAAGGAAAACACATGCGCATTTTCACCAATT [TGCATGCA_site11]	9.7
ATATATATATATATATGTACATATGTATATTTTTTT [XGTACX_site1299]	9.71
TATATATATATATGTGCATGTTCCCCATGCTTCCAT [TGCATGCA_site366]	9.54
AAAATTATAATAATATGTACTTAAAAAATTTATATA [XGTACX_site632]	9.52
AATATATATATATATAGTACATATTTTTATTCATTA [XGTACX_site2156]	9.62
TATATGTATTTATATACACACATATTCTTTTGACAC [CACACA_site1206]	9.91
TTTAAACAAGGATCCACACACCCCAAAAAAAAAAGA [CACACA_site680]	10.7
TTTTTATTTTTGTAGTGTACTTTATTTTTTTTGTTT [XGTACX_site8887]	9.74
TATATATATATATACACACACACACCCATATATATA [CACACA_site2538]	10.4
CTGTATTCATAATTCACACAAATGGTTTATATGAAT [CACACA_site4315]	9.6
CATACATACAGATATACACACATATATAATAATATA [CACACA_site5477]	9.97
CATATTTGCACTTTCACACATAAATATATAACTATA [CACACA_site6016]	9.85
TAATATATGAGAAATTGTACAGAAAGGAATATGCTT [XGTACX_site5300]	9.64
TTACAAATGGTTTACACACACATAATTGTATCAATT [CACACA_site4167]	9.95
TATATATGTTCAATATGTACATATATATAAGTGTAT [XGTACX_site5157]	9.7
